Source: patent US12460006B2, “Antibodies against integrin alpha 11 beta 1” (Momenta Pharmaceuticals, Inc., priority 2019, dated 2025)

Experiments:
[1] = test system: human pulmonary fibroblasts (HPFs); test: FACS antibody binding to human pulmonary fibroblasts; details: binding Yes/No
Description: (§1) Human Pulmonary Fibroblasts (ScienCell) were cultured in complete Fibroblast Growth Medium (ScienCell) until 80% confluent in T-150 flasks. Cells were washed and harvested using Accutase. Cells were seeded into T-150 flasks at 7,500 cells/cm^2 in complete FGF and cultured for 72 hours. Cells were then washed and starved in serum reduced medium for 24 hours. After starvation, cells were treated with TGFβ-1 (R&D Systems) for 72 hours. Cells were harvested using Accutase and seeded in 96-well conical bottom plates. Cells were blocked with Heat Inactived Fetal Bovine Serum (Gibco) for 30 minutes at 4° C. Cells were then incubated with anti-α11 antibodies at the doses described in each figure for 30 minutes at 4° C. A human anti-α11 antibody (Creative BioLabs) was included as a positive control as well as the appropriate IgG isotype negative controls. Cells were washed twice and incubated with PE conjugated secondary antibodies specific to the IgG class of the anti-α11 antibodies being tested for 30 minutes at 4° C. Cells were washed twice and fixed in 1% PFA for 30 minutes. Cells were acquired on a FACS Verse […]. Data were analyzed by gating on single cells and determining the geometric Mean Fluorescence Intensity (gMFI) in the PE channel for each sample.
(§2) Binding to a physiologically relevant primary human cell type was also tested. Human pulmonary fibroblasts (HPF) and TGFβ treatment were used to induce a fibroblast-to-myofibroblast transition (FMT), giving rise to myofibroblasts (MF). […] Additionally, HPFs express α11 and α2β1, other collagen binding receptors, which means that HPFs can be to test cross-reactivity of antibodies of interest.

[2] = test system: myofibroblasts (MF); test: FACS antibody binding to myofibroblasts; set-up: species or system human; details: binding Yes/No
Description: as §1, §2

[3] = molecular target: T1, I domain of α11β1 (Homo sapiens, UniProt Q9UKX5); test: ELISA binding to in-house generated I domain of α11β1; details: for I Domain binding: Yes/No
T1 construct: An in-house generated I domain of α11β1 was used; made in house
T1 sequence (Q9UKX5 164-345 limits assumed): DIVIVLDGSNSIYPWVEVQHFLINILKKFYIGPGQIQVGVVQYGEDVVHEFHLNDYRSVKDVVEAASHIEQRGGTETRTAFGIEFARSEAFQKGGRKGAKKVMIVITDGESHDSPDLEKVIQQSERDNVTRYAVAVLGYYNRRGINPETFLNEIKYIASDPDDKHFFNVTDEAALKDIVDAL
Description: 0.25 μg/mL of target antigen (recombinant human or mouse α11β1) was plated in a 96-well plate over night at 4° C. Plates were washed (PBS with 0.1% Tween-20), blocked (PBS with 2% BSA and 0.05% Tween-20) for 1 hour at room temperature and incubated with a range of antibody concentrations for 1 hour at room temperature. Subsequently, plates were washed and incubated with biotinylated anti-rabbit/mouse/human IgG in a 1:1000 dilution buffer and incubated for 1 hour at room temperature. After washing the plates, Streptavidin HRP was added at 1:200 in dilution buffer and incubated for 1 hour at room temperature. Ultra TMB ELISA substrate solution was added and the plates incubated for 5 minutes on a plate shaker. The reaction was stopped by adding stop solution to each well and plates were read at 450 nm.
22 Data was also collected to determine whether antibodies of interest bind to the I domain of α11β1. An in-house generated I domain of α11β1 was used. […] Mouse antibodies 10-F23, 10-L15, 7-O8, 6-A12, 9-G05 and 9-E16 and rabbit antibodies 7-H12 and 2-D3 were also tested for binding against the in-house generated α11031 domain. FIGS. 3A and 3B show graphs illustrating binding data from exemplary mAbs.

[4] = molecular target: T2, α11β1 expressed on the surface of CHO-K1 cells (Homo sapiens, UniProt Q9UKX5); test: FACS antibody binding to CHO-K1 cells expressing human α11; details: for CHO-K1 FACS: binding Yes/No
T2 construct: expressed in transfected cells; host or cells: CHO-K1
T2 sequence (Q9UKX5 23-1188): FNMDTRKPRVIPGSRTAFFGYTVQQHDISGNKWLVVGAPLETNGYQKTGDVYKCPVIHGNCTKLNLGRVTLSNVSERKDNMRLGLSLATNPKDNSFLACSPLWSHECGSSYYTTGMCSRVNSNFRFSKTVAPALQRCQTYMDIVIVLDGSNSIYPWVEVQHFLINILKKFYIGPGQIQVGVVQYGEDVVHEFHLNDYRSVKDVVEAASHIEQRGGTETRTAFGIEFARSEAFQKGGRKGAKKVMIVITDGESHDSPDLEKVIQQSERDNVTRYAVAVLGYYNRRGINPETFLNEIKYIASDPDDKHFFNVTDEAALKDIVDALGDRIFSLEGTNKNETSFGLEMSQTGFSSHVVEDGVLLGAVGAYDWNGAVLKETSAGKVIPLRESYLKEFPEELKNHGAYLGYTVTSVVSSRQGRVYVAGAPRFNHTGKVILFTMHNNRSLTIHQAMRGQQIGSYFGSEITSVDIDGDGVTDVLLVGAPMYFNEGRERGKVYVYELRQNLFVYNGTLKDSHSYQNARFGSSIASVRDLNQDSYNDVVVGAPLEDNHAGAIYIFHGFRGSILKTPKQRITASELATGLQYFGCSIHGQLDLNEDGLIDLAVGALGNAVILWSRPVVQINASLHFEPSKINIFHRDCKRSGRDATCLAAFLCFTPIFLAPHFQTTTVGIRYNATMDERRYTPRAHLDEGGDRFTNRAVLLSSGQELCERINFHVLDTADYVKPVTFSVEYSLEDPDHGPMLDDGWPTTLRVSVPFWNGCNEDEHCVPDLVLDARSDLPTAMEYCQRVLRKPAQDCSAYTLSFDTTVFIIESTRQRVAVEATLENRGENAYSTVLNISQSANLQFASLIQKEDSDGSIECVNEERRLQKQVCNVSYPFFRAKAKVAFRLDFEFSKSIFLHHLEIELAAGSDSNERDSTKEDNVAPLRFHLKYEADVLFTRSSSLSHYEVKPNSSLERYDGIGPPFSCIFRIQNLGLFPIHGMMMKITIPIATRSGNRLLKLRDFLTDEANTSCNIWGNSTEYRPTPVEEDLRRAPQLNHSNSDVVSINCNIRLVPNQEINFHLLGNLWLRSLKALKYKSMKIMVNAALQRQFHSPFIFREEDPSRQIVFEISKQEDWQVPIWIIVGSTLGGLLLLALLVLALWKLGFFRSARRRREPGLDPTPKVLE
Description: 200,000 cells (wild-type CHO-K1 cells or CHO-K1 cells expressing human α11) were incubated with each antibody at desired concentrations in FACS buffer for 30 min at 4° C. Then, the cells were washed with FACS buffer and incubated with secondary antibody at 1:100 dilution for 30 minutes at 4° C. Cells were then washed and fixed with 1% PFA in PBS for 20 minutes at room temperature; washed again and read on a cytometer in FACS buffer.
Since integrins are large, transmembrane receptors that exist in different conformational shapes, experiments were performed to confirm that the novel antibodies also bound cell-expressed α11β1. A CHO-K1 cell line that endogenously expressed high levels of the β1 subunit was engineered to stably express human α11 (CHO-K1 hu α11).
Binding EC50 was estimated using data from Fluorescence-activated cell sorting (FACS) performed with CHO-K1 hu α11β1 cells.

B1: 8-G15: mouse anti-α11β1 mAb; VH SEQ ID NO: 107, VL SEQ ID NO: 108 (antibody, V domains shown)
VH: EVQLQQSGPELVKPGASVRISCKASGYTFTDYYIHWVKQKPGQGLECIGEIYPGTDNTYYSKKFRGKATLTADKSSDTAYMQLSSLTSEDSAVYFCARGDYYRGYFDVWGAGTTVTVSS
VL: DVVMTQTSLTLSVTIGQPASISCKSSQSLLHSNGKTYLNWLLQRPGQSPKFLIYLVSKLESGVPDRFSGSGSGTDFTLKISRVEAEDLGVYYCLQSTHFPWTFGGGTKLEIK
- HPF FACS [1]: No
- MF FACS [2]: Yes
- I-domain binder [3]: not found to bind the I-domain
- I Domain binding [3]: No
- CHO-K1 binding EC50 (in words) ([4]; FACS): low nanomolar range
- CHO-K1 FACS [4]: Yes

B2: 2-A3: mouse anti-α11β1 mAb; VH SEQ ID NO: 131, VL SEQ ID NO: 132 (antibody, V domains shown)
VH: EVQLQQSGPELVKPGASVKMSCKASGYTFTDYYMMWVKQSHGKSLEWIGDINPYNGGSSYNPKFKGRATLTVDKSSSTAYMQLNSLTSEDSAVYYCARGTYWGQGTLVTVSA
VL: DVVMTQTPLTLSVTIGQPASISCKSSQSLLDSAGKTYLNWLLQRPGQSPKRLMYLVSKLDSGVPDRFTGSGSGTDFTLKISRVEAEDLGVYYCWQGTHFPYTFGGGTKLEIK
- HPF FACS [1]: No
- MF FACS [2]: No
- I Domain binding [3]: No
- CHO-K1 FACS [4]: No

B3: 7-O8: mouse anti-α11β1 mAb; VH SEQ ID NO: 143, VL SEQ ID NO: 144 (antibody, V domains shown)
VH: EVQLQQSGPELVKPGASVKMSCKASGYTFTDYYIHWVKQKPGQGLEYIGEIYPGSGNTYYNGKFRGKATLTADKSSSTAYMQLSSLTSEDSAVYFCGSGYFDYWGQGTTLTVSS
VL: DVVMTQTPLTLSVTIGQPASISCKSSQSLLYSNGKTYLNWLLQSPGQSPKLLIYLVSKLESGVPDRFSGSGSGTDFTLKLSRVEAEDLGVYYCVQGTHFPFTFGSGTKLEIK
- HPF FACS [1]: No
- MF FACS [2]: Yes
- I Domain binding [3]: Yes
- CHO-K1 FACS [4]: Yes

B4: 10-K10: mouse anti-α11β1 mAb; VH SEQ ID NO: 139, VL SEQ ID NO: 140 (antibody, V domains shown)
VH: EVQLQQSGPELVKPGASVKMSCKASGYTITDYYMMWLKQSHGKSLEWIGDINPYTGGTSYNQKFKGKATLTVDKSSSTAYMQLNSLTSEDSAVYYCARGAYWGQGTTLTVSS
VL: DVVMTQTPLTLSVTIGQPASISCKSSQSLLDSDGKTYLNWLLQRPGQSPKRLIYLVSKLDSGVPDRFTGSGSGTDFTLKISRVEAEDLGVYYCWQGTHFPYTFGGGTKLEIK
- HPF FACS [1]: No
- MF FACS [2]: Yes
- I Domain binding [3]: No
- CHO-K1 FACS [4]: No

B5: 6-A15: mouse anti-α11β1 mAb; VH SEQ ID NO: 137, VL SEQ ID NO: 138 (antibody, V domains shown)
VH: EVQLQQSGPELVKPGASVKMSCKASGYTITDYYMMWLKQSHGKSLEWIGDINPYTGGTSYNQKFKGKATLTVDKSSSTAYLQLHSLTSEDSAVYYCARGAYWGQGTTLTVSS
VL: DVVMTQTPLTLSVTIGQPASISCKSSQSLLDSDGKTYLNWLLQRPGQSPKRLIYLVSKLDSGVPDRFTGSGSGTDFTLKISRVEAEDLGVYYCWQGTHFPYTFGGGTKLEIK
- HPF FACS [1]: No
- MF FACS [2]: No
- I Domain binding [3]: No
- CHO-K1 FACS [4]: No

B6: 6-P20: mouse anti-α11β1 mAb; VH SEQ ID NO: 141, VL SEQ ID NO: 142 (antibody, V domains shown)
VH: EVQLQQSGPELVKPGASVKISCKASGYTFTDYYMNWVKQSHGRSLELIGDINPNNGGSNFNQKFRGKATLTVDKSSSTAYMELRSLTSEDSAIYYCARMGYWGQGTLVTVSA
VL: DVVMTQTPLTLSVTIGQPASISCKSSQSLLHSDGKTYLNWMFQRPGQSPKRLIYLVSKLDSGVPYRFTGGGSGTDFTLQISRVETEDLGVYYCWQGTHFPRTFGGGTKLEIK
- HPF FACS [1]: No
- MF FACS [2]: No
- I Domain binding [3]: No
- CHO-K1 FACS [4]: Yes

B7: 6-O17: mouse anti-α11β1 mAb; VH SEQ ID NO: 133, VL SEQ ID NO: 134 (antibody, V domains shown)
VH: QVQLQQPGAELVKPGASVKLSCKASGYTFTSYWMHWIKQRPGQGLEWIGEINPSNGGSNYNEKFKSKATLTVDKSSSTAYMQLSSLTSEDSAVYHCKSRGYWGQGTTLTVSS
VL: DVVMTQTPLTLSVTIGQPASISCKSSQSLLDSYGKTYLNWLLQRPGQSPKRLIYLVSKLDSGVPDRFTGSGSGTDFTLKISRVEAEDLGIYYCWQGTHFPHTFGSGTKLEIK
- HPF FACS [1]: No
- MF FACS [2]: Yes
- I Domain binding [3]: No
- CHO-K1 FACS [4]: Yes
